Experimental data taken from PMC9280432.
No constants are given. Whether binding was seen depends on the method and setting. For some assays here: Binding seen in cells or lysates may run through a third protein. Some entries that bind do so weakly or less than the wild type. For some assays here: Where a sequence is shown, tags or fusion partners need not be part of it.

Key:
[1] = biological target: T1, RopGEF7-CDS (full-length RopGEF7) in pGBKT7 (Arabidopsis) (UniProt Q9LZN0); assay: two-hybrid; direct assay: bait (pGBKT7) and prey (pGADT7) co-transformed by pairs into yeast AH109; SD/-Trp-Leu at 28°C for 3 days, then SD/-Trp-Leu-Ade-His
T1 sequence: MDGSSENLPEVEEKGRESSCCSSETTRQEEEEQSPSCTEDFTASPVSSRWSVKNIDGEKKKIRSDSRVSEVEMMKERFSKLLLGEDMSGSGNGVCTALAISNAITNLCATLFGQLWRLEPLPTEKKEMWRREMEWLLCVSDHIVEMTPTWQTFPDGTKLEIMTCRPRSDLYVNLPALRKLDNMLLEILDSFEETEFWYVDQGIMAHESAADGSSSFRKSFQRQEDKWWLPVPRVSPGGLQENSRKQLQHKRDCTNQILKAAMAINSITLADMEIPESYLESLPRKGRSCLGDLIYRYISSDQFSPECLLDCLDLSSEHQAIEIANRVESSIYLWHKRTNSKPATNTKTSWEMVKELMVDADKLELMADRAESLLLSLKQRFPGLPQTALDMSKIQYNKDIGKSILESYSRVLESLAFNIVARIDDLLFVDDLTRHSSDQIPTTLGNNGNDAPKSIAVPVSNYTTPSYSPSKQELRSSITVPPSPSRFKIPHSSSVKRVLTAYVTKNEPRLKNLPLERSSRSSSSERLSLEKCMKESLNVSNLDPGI

[2] = biological target: T2, RopGEF1, yeast two-hybrid construct (Arabidopsis) (UniProt Q93ZY2); assay: as above
T2 sequence: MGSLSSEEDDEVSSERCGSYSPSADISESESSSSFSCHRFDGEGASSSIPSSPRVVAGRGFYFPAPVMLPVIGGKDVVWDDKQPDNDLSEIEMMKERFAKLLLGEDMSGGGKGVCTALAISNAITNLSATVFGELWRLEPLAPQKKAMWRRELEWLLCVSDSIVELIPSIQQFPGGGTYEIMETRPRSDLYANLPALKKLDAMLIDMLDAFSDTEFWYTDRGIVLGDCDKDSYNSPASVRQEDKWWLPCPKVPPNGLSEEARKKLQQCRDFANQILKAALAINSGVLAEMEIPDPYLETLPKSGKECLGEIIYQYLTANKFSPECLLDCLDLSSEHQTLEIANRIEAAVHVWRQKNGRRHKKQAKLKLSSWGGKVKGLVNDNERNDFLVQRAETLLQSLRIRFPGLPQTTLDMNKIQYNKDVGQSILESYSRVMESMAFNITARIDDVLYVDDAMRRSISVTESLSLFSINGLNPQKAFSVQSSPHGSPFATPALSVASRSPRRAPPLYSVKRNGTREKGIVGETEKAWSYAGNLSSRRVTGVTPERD

[3] = biological target: T3, RopGEF7-ΔN (N-terminal deleted fragment, aa 60-546) in pGBKT7 (Arabidopsis) (UniProt Q9LZN0); assay: as above
T3 sequence: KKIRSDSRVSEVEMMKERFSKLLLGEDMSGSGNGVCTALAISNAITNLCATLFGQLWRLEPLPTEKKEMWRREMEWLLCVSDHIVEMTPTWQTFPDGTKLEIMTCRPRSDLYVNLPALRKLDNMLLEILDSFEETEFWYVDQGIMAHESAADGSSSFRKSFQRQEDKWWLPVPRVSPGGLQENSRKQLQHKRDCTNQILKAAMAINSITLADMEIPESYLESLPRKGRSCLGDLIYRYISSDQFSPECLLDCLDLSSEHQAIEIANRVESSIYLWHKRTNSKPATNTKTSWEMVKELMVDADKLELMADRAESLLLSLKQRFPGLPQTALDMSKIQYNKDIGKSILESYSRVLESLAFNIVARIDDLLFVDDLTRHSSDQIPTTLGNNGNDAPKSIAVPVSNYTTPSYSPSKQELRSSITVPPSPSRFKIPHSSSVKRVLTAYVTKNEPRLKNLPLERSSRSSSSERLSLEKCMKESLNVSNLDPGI

[4] = biological target: T4, RopGEF7-PRONE (PRONE domain, aa 60-447) in pGBKT7 (Arabidopsis) (UniProt Q9LZN0); assay: as above
T4 sequence: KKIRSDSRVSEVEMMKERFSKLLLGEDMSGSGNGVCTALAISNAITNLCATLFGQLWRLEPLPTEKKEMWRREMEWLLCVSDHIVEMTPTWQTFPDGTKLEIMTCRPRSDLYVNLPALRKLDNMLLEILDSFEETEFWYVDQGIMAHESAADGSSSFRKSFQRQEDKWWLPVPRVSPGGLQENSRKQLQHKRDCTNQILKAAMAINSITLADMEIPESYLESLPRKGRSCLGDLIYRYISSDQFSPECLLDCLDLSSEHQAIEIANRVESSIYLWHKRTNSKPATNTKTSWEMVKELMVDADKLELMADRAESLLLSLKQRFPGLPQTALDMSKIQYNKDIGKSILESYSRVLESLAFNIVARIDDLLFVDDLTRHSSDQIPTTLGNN

[5] = biological target: T5, RopGEF4, yeast two-hybrid construct (Arabidopsis) (UniProt Q0WNP7); assay: as above
T5 sequence: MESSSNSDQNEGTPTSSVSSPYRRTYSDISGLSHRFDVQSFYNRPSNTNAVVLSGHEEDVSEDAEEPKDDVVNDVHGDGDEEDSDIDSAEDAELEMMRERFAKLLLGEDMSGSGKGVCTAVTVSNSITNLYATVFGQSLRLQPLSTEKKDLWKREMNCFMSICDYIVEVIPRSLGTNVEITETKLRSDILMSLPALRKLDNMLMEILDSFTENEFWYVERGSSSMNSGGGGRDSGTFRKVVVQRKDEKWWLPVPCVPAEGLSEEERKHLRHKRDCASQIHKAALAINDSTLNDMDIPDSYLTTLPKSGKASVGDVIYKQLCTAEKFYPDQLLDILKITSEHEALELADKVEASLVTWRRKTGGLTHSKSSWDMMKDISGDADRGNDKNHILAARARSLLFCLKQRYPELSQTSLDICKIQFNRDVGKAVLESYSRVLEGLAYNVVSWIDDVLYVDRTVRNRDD

[6] = biological target: T6, RopGEF7-C (C-terminal fragment, aa 448-546) in pGBKT7 (Arabidopsis) (UniProt Q9LZN0); assay: as above
T6 sequence: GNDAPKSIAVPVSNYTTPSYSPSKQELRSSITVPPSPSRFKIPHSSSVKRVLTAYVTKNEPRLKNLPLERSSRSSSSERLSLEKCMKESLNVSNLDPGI

[7] = biological target: T7, RopGEF6, yeast two-hybrid construct (Arabidopsis) (UniProt Q9M056); assay: as above
T7 sequence: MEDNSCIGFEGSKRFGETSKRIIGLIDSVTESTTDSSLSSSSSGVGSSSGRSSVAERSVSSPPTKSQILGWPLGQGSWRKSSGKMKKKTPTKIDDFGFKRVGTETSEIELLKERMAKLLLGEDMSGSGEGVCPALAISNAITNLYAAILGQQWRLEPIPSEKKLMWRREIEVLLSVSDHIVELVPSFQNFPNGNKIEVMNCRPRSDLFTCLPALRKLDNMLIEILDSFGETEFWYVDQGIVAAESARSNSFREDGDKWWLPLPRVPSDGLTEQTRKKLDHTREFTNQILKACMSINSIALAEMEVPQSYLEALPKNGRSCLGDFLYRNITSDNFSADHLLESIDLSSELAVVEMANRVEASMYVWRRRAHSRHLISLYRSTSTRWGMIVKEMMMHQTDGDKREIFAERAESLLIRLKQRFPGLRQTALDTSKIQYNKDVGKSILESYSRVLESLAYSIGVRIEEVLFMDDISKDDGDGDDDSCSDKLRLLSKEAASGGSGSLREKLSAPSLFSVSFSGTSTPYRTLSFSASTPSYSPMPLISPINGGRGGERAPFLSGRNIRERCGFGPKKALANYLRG

[8] = biological target: T8, GST-eIF4E1 (recombinant GST-tagged eIF4E1) (Arabidopsis) (UniProt O23252); assay: pull-down; purified GST-eIF4E1 as bait mixed with YFP-RopGEF7 in total plant protein of 35Spro:YFP-RopGEF7 plants (lines L1, L11), 4°C for 2 h; detection with GFP antibody; only the target purified
T8 sequence: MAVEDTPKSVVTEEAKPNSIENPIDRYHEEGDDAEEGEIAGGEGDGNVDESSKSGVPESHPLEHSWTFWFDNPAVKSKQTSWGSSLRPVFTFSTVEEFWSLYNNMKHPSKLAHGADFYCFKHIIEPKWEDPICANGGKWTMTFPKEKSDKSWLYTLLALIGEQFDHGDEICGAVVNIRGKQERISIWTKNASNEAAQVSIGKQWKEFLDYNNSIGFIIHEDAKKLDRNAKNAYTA

[9] = biological target: T9, cYFP-RopGEF7 (Arabidopsis) (UniProt Q9LZN0); assay: split reporter; BiFC: nYFP-eIF4E1 and cYFP-RopGEF7 co-transformed into Arabidopsis protoplasts; YFP signal by microscopy
T9 sequence: T1 sequence

B1: eIF4E1 (eukaryotic translation initiation factor 4E1), cDNA in pGADT7 for the direct yeast two-hybrid assay (protein, UniProt O23252 1-235)
chain: T8 sequence
Q: Which results are given for B1?
A: binding [1]: binds; binding [2]: no binding; binding [3]: binds; binding [4]: binds; binding [5]: no binding; binding [6]: no binding; binding [7]: no binding

B2: eIF(iso)4E, yeast two-hybrid construct (protein, UniProt O04663 1-198)
chain: MATDDVNEPLPAAAELPATEAEKQPHKLERKWSFWFDNQSKKGAAWGASLRKAYTFDTVEDFWGLHETIFQTSKLTANAEIHLFKAGVEPKWEDPECANGGKWTWVVTANRKEALDKGWLETLMALIGEQFDEADEICGVVASVRPQSKQDKLSLWTRTKSNEAVLMGIGKKWKEILDVTDKITFNNHDDSRRSRFTV
Q: With B2 as the binder, how does the binding [1] read?
A: Its binding is “binds weakly”.

Q: What about the binding [4] of the same binder?
A: The binding was “binds”.

B3: YFP-RopGEF7 (from 35Spro:YFP-RopGEF7 transgenic plants) (protein, UniProt Q9LZN0 1-546)
chain: T1 sequence
Q: B3 was tested. Which binding [8] did it give?
A: The binding was “binds”.

B4: nYFP-eIF4E1 (protein, UniProt O23252 1-235)
chain: T8 sequence
Q: With B4 as the binder, how does the binding [9] read?
A: The binding was “binds”.
